The source gives no read counts; variants with many changes may rest on few reads.

B1: LINE1-full (parent)
chain: UACGUAGGUGGUUUUCCCCUGAUAGUGCUAAGGGGGCCUGGAAGUUUGGACUGGGCAGAGCUCAACACAGCGUGGCAAAGUGGCUGUGGCUAGACUGCCUCUCUGGAUUCCUCGUCACUCAGCAGGGCAUCUCUGAGAGAAAUGCC

Variants of B1 are the subject of this data set. The data set can be described thus: self-cleavage, relative activity (ratio to wild type); higher = more cleavage; in vitro, sequencing; the parent is a self-cleaving ribozyme.
For the variant G74A A79C G125C U143C, the self-cleavage amounted to 1.58.

Turning to U73C U104C U112A U132A, the self-cleavage turned out to be 1.53.

As to G75U G82U U104C A129G, the self-cleavage was determined as 0.71.

As to A77G A107G A121G, the self-cleavage is 1.84.

As for U73C A138G A142C, the self-cleavage came to 2.19.

For U73G U81A A124U, the self-cleavage amounted to 1.43.

As for A77G A92U A94G G122C U143A, the self-cleavage stood at 0.14.

Take A77G U85C U102A: the self-cleavage is 0.59.

For U73C A78G U96C A136G, the self-cleavage amounted to 0.

As for A77G G89A U104C, the self-cleavage is 0.36.

As for A77G U102C U132C A140G, the self-cleavage was found to be 1.15.

As for A77G U85C U109C, the self-cleavage was 0.

For A77G U130C A136G, the self-cleavage came out at 2.7.

With G75U A136G U143C, the self-cleavage was determined as 0.83.

As to A77G G89A U134G A142G, the self-cleavage was determined as 0.04.

As for A77G U108C U112A, the self-cleavage was 2.04.

A77C U109A U130C: the self-cleavage amounted to 1.38.

For the variant U73A U91A U130C, the self-cleavage is 0.7.

Take U73C U119C A141G: the self-cleavage is 1.64.

For the variant A77C U85C A124G G125U, the self-cleavage is 0.

Regarding U73A A94G U115C, the self-cleavage worked out at 0.52.

For U73A U119A A129G, the self-cleavage was 2.22.

Turning to A77G A129U U143A, the self-cleavage amounted to 1.95.

For the variant A77G A129U U143C, the self-cleavage worked out at 2.22.

Regarding U73C U100C U130C U143A, the self-cleavage worked out at 1.02.

For C76U U119A U134C, the self-cleavage was found to be 2.44.

Take G72U A78G A129C: the self-cleavage was determined as 1.

Take U73C C111U U130C: the self-cleavage came out at 1.05.

Turning to U73C U87C U112C A140G, the self-cleavage was 0.

Turning to A77G C116A A142G, the self-cleavage came to 1.17.

For the variant U73C U85A A121U, the self-cleavage came out at 0.12.

For A77U C103U A129G U132C, the self-cleavage was 0.86.

Consider A77G U85A U104A A121G, for which the self-cleavage was 0.06.

Consider U73A U85C U100C U104C C128U U132C, for which the self-cleavage amounted to 0.58.

As to A77G U91C A92G U96A, the self-cleavage is 0.

On to C76A A77G U96C, for which the self-cleavage is 0.25.

On to G74U A79G U104A, for which the self-cleavage came to 0.89.

On to U73A A129U A138G, for which the self-cleavage came out at 2.12.

For C76U U104C C113U, the self-cleavage came to 1.7.

Turning to G75A A94G U96C C118U, the self-cleavage came out at 0.04.

U73C U87C A140G: the self-cleavage amounted to 0.

Turning to A77G U87A A94G A129U, the self-cleavage was found to be 0.26.

With A77G A94U U102C A138G A141G, the self-cleavage turned out to be 1.42.

On to G74A U91C A94G C95G, for which the self-cleavage was 0.05.

With A77G U87A A138G, the self-cleavage amounted to 0.19.

For the variant U73C A121U A140G, the self-cleavage worked out at 1.84.

On to G74A A77G U91A A107G U134A, for which the self-cleavage was 0.45.

Consider A77C A107G U119A, for which the self-cleavage is 1.02.

As to C76A U104C A138G, the self-cleavage turned out to be 1.5.

For the variant A77G C90U U102C, the self-cleavage was found to be 0.03.

Take A77U C99U U104A A140G: the self-cleavage is 0.12.

With U73C A77G U96C, the self-cleavage is 0.

Consider U73C G89U U96G U115G, for which the self-cleavage came out at 0.

For U73C A78G C99U, the self-cleavage is 0.55.

As to G75A C110U A138U, the self-cleavage was 1.13.

Turning to G72U A129G A142G, the self-cleavage turned out to be 1.44.

In the case of U73C A78G A107G, the self-cleavage was found to be 0.

As for A77G A78G G82A A142G, the self-cleavage turned out to be 2.84.

U73C A79G C98U U108C: the self-cleavage was found to be 0.56.

Consider U73C U91A U96A U100C U104C A121U U143A, for which the self-cleavage was determined as 0.

As to U73C A79G U104A, the self-cleavage was determined as 0.74.

For the variant U73A C116U U119C, the self-cleavage stood at 1.51.

As to A77G G122U U130A, the self-cleavage was 2.08.

For the variant G74U A138G A142G, the self-cleavage amounted to 1.69.

Regarding U73A U87C U100C, the self-cleavage was 0.72.

In the case of G75A C113U U119A, the self-cleavage amounted to 0.47.

Regarding G75A U115C U119A, the self-cleavage was 1.79.

For U73C U132C A138G, the self-cleavage came to 1.12.

With U73C U81G U85C U87A A117U, the self-cleavage came to 0.

On to U73A U85A U108C, for which the self-cleavage was 0.07.

As to U73C C113A U132C, the self-cleavage turned out to be 1.61.

For the variant A77U A94C U100C U102C, the self-cleavage was found to be 0.12.

Consider G72A U112C U130A, for which the self-cleavage amounted to 1.83.

As to G74A U112C A129G A138G, the self-cleavage was found to be 2.76.

A77G U102C A129G: the self-cleavage was 1.53.

With G74A U81C U102C, the self-cleavage amounted to 0.93.

In the case of U73C A78G U104A U134C, the self-cleavage worked out at 1.

Turning to U73A U102C A121U, the self-cleavage was 1.73.

In the case of U73C A136U A141G, the self-cleavage is 2.03.

Turning to U73C U81A C103U C128U, the self-cleavage turned out to be 1.71.

Regarding A77U A92G U100C U130C, the self-cleavage is 0.

As to G75A A77C U104A U132A, the self-cleavage came to 1.09.

As for U73C G80A A121U, the self-cleavage is 2.15.

In the case of U73C A124G U134C, the self-cleavage was found to be 1.44.

Take A77G A94G A107G G125U A140U: the self-cleavage was 0.

Turning to A77G G97A U132C, the self-cleavage worked out at 0.14.

For the variant G72U U96A C110A, the self-cleavage came to 0.05.

On to U73G C123A U143G, for which the self-cleavage turned out to be 1.58.

As for G72A U108C A124G, the self-cleavage came out at 1.58.

On to A77G U104C G137A, for which the self-cleavage was found to be 2.02.

As for U73A U109C U115C A124U, the self-cleavage is 1.15.

For the variant C76U A94G A117G A136G, the self-cleavage is 0.54.

In the case of U73C A78G G80U G93A A141G, the self-cleavage turned out to be 0.08.

On to A77U A78G A124U, for which the self-cleavage stood at 0.8.

In the case of A77G U104A A107U, the self-cleavage was 1.15.

As to A77G U85C U109A G125A A138G, the self-cleavage was 0.19.

A77G A79G U104A A138U: the self-cleavage stood at 1.4.

For U73C A79G U96A, the self-cleavage is 0.

On to G74U A77U G86A A124G U132C A138G, for which the self-cleavage worked out at 0.06.

As to U73A A117U A142G, the self-cleavage stood at 1.62.

For G74A U91C A94G A117G, the self-cleavage was determined as 0.

Regarding G75A U96C A129U A141G, the self-cleavage came out at 0.08.

As for C76U A94G U108C U132C, the self-cleavage amounted to 0.11.

Turning to A77G U100A U112C U115C, the self-cleavage worked out at 0.

Turning to G74A C103A A129G, the self-cleavage was 0.8.

As for U73A U96C A107U U112A, the self-cleavage amounted to 0.14.

For U73C A129G U143C, the self-cleavage is 2.3.

Regarding U73C C118U A136G, the self-cleavage worked out at 2.2.

Regarding U73C U100A U109C, the self-cleavage was found to be 0.37.

A77G U109C A140G: the self-cleavage is 1.06.

As to A77C U130A U143C, the self-cleavage is 1.87.

As for G72U U112C A141G, the self-cleavage was determined as 2.72.

Consider G74A U87C U115C A142C, for which the self-cleavage turned out to be 0.2.

Take C76U A77G U132A: the self-cleavage amounted to 2.13.

For U73A U102C U108C U115A U130A, the self-cleavage was 1.38.

Consider U73C A121G A140U, for which the self-cleavage was 1.53.

Take G72U U85A C90U U115C A121U: the self-cleavage was determined as 0.06.

For G74A U119C A136G, the self-cleavage was 1.07.

In the case of U73A U81A U96C, the self-cleavage was 0.12.

For the variant A77G A129U U134C U143C, the self-cleavage was determined as 0.48.

In the case of A77U A94U A121U A136G, the self-cleavage came to 0.38.

In the case of G72U A94G U130C A142G, the self-cleavage worked out at 0.19.

G75A U109C U143A: the self-cleavage was determined as 0.63.

As to A77G U130C A140G C145A, the self-cleavage amounted to 2.76.

For A77G A78G A129C, the self-cleavage is 1.53.

U73A U108C C133A U134C: the self-cleavage was 2.47.

Regarding U73C C123U G125A U132A A140G, the self-cleavage stood at 2.28.

In the case of U73C U87C A129U C131U, the self-cleavage is 0.21.

Turning to A77G C84G U132C A142G, the self-cleavage stood at 0.11.

With U73C U91C C101G, the self-cleavage stood at 0.

In the case of U73C U115C U119C, the self-cleavage amounted to 0.71.

As to U73C A129G U132C, the self-cleavage was found to be 1.15.

In the case of A77U A78G G139A A141G, the self-cleavage was determined as 1.11.

For U73G A79G U112C, the self-cleavage stood at 1.58.

Turning to G74A A121G A140G, the self-cleavage stood at 0.71.

In the case of U73A A117G A124U, the self-cleavage stood at 1.14.

On to G75A G114U C120U, for which the self-cleavage was found to be 0.41.

With U73C A77G U87A, the self-cleavage amounted to 0.19.

For the variant A77G U112A U143C, the self-cleavage was 2.86.

As to U73A C84U U108C, the self-cleavage was 0.21.

For G72A U119A A140G, the self-cleavage stood at 1.46.

Turning to A77G G97U G144A, the self-cleavage was 0.13.

For the variant A77G A117G G125A, the self-cleavage was 2.09.

For the variant G72U A92G A117G U119C, the self-cleavage was determined as 0.

Regarding A77U G89A U100C U109A, the self-cleavage worked out at 0.1.

With U73C U104A A117G, the self-cleavage amounted to 0.

On to U73G A136U A138G, for which the self-cleavage amounted to 1.72.

For U73C A94G A136G, the self-cleavage came to 0.

On to U73C A94G A141G, for which the self-cleavage is 0.

Turning to A77G A94U C111U A140G, the self-cleavage worked out at 0.53.

As to A77G A78G U81A U96C U119C G122U, the self-cleavage came out at 0.

As to A77G C84U U100A U104C A121U, the self-cleavage came out at 0.13.

Take A77G G125A A138U: the self-cleavage was 2.07.

Consider U73C U91C U102A, for which the self-cleavage came out at 0.37.

As to U73G A77G U112A U115C, the self-cleavage came out at 1.23.

On to U73A A129G U132C, for which the self-cleavage was determined as 1.3.

Take U73G U102C G114U: the self-cleavage was 1.63.

Regarding U73A C76U U108C, the self-cleavage came out at 2.64.

For the variant U73A U100C A107C, the self-cleavage is 0.

On to U73C A77G U96A U108C, for which the self-cleavage is 0.

U73A U85C A140G: the self-cleavage was found to be 0.09.

On to A77G U96A A129G U143C, for which the self-cleavage was determined as 0.07.

A77G U108C U130C: the self-cleavage came to 2.63.

With U73A U81C A124U C145U, the self-cleavage stood at 2.08.

On to G72U U91G G125A, for which the self-cleavage worked out at 0.03.

Take A77U G93A U130A: the self-cleavage amounted to 0.04.

On to G75A A107G U119C, for which the self-cleavage was 1.11.
